Assay results taken from PubChem BioAssay AID1030 (National Center for Advancing Translational Sciences (NCATS), 2008).
Out of some 220,000 compounds screened, about 16,000 (7.3%) were called active. Inconclusive means that the source gave no clear call. Such entries were picked first, then a sample of the others. The call rests on the fitted dose curve; in most records, active means well fitted inhibition curve with a large enough effect (not every such curve was filed as active); inconclusive means small, poorly fitted or top-dose-only effect, or another doubt; inactive means no such curve, though single readings can be large or run the other way. Potencies of inconclusive entries are doubtful fits and often do not repeat.

Biological target: Aldehyde dehydrogenase 1A1 (Homo sapiens) (UniProt P00352)
Assay: qHTS Assay for Inhibitors of Aldehyde Dehydrogenase 1 (ALDH1A1);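 on activity, negative = inhibition: plate controls were no enzyme wells and a reference inhibitor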
Details: Purified ALDH1A1, NADH fluorescence, propionaldehyde substrate; series mostly up to 75.3 µM
Potency means the concentration at half of the fitted maximal effect; tags describe the fitted curve by direction and shape.

UniProt P00352, sequence (P00352 whole entry, looked up): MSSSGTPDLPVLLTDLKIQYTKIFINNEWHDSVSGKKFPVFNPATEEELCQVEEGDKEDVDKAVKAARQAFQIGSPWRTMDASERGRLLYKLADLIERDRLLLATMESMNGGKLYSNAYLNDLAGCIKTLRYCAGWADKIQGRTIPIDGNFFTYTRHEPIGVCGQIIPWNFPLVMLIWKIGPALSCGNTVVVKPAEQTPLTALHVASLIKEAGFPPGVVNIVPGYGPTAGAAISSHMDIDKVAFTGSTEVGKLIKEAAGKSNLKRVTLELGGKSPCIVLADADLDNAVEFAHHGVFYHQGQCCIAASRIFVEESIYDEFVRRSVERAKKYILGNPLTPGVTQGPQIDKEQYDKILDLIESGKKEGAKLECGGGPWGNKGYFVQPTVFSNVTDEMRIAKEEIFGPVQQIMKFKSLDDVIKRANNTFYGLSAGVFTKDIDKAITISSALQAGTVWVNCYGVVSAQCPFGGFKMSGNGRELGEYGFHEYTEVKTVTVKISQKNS

Potency, inconclusive:
OC1CCCN(c2c3c(nc4cc(-c5cccc(Cl)c5)nn24)CCC3)C1 (stereo not drawn) 25.1 µM [inhibitor, partial curve]
Cc1ccc(CNC(=O)c2ccc(N3CCc4ccccc43)c([N+](=O)[O-])c2)cc1 14.1 µM [inhibitor, partial curve]
C=CCc1ccc(OCC(O)CN2CCN(Cc3ccccc3)CC2)c(OC)c1 (stereo not drawn) 3.16 µM [inhibitor, partial curve]
COc1ccccc1C(=O)Nc1cc2ccccc2oc1=O 3.55 µM [inhibitor, full curve]
CCCN1C(=O)CC(c2ccco2)Sc2ccccc21 (stereo not drawn) 39.8 µM [inhibitor, single point]
O=C(NCc1n[nH]c(=S)n1-c1ccc(F)cc1)c1ccco1 37.7 µM [inhibitor, single point]
Cc1cccc(OCc2nnc(SCC(=O)N(C(C)C)C(C)C)n2Cc2ccco2)c1C 39.8 µM [inhibitor, single point]
NCCC[C@@H](CC(=O)N[C@@H]1CCCC[C@H]1C(=O)N[C@H](CC(=O)N[C@@H](CCC(=O)O)CC(=O)O)Cc1c[nH]c2ccccc12)NC(=O)C[C@H](CO)NC(=O)[C@@H]1CNCC[C@H]1N 28.2 µM [inhibitor, single point]
CCOc1ccccc1NC(=O)CN(C)S(=O)(=O)c1ccc(OC)c(C)c1 12.6 µM [inhibitor, partial curve, poor fit]
COc1ccc(C2CC(c3ccccc3)Nc3nc(NC(=O)c4cccs4)nn32)cc1 (stereo not drawn) 39.8 µM [inhibitor, single point]
O=C(OCCN1C(=O)c2ccccc2C1=O)c1cc(=O)[nH]c2ccccc12 39.8 µM [inhibitor, single point]
CCn1cc(CNC(=O)CSc2nc(-c3ccc(OC)c(OC)c3)cc(C(F)(F)F)n2)c(C)n1 31.6 µM [inhibitor, single point]
Oc1ccc2ccccc2c1C1Nc2cccc3cccc(c23)N1 39.8 µM [inhibitor, single point]
Nc1c(C(=O)Nc2ccccc2)sc2nc3c(c(-c4ccco4)c12)CCCC3 3.16 µM [inhibitor, partial curve]
CCc1cc(C(=O)NNC(=S)Nc2cccc(C)c2)cs1 28.2 µM [inhibitor, single point]
Fc1ccc(Cn2cccc2C2=NC(c3ccccc3)CO2)cc1 (stereo not drawn) 25.1 µM [inhibitor, single point]
O=C1CC(c2ccco2)CC(O)=C1C=Nc1cc(Cl)ccc1Cl (stereo not drawn) 28.2 µM [inhibitor, single point]
COc1ccc(Nc2nnc(-c3ccc(N4CCOCC4)c([N+](=O)[O-])c3)c3ccccc23)cc1 17.8 µM [inhibitor, partial curve]
CCC(CC)N1CCN(CC2CC=CCC2)CC1 (stereo not drawn) 39.8 µM [inhibitor, single point]
Cc1ccc(S(=O)(=O)c2c(N)n(CCN3CCOCC3)c3nc4ccccc4nc23)cc1C 31.6 µM [inhibitor, partial curve]
Cc1ccc(S(=O)(=O)Nc2nc3ccccc3nc2NCc2ccco2)cc1C 39.8 µM [inhibitor, single point]
Cc1nc2cc(N)ccc2n1-c1ccccc1 31.6 µM [inhibitor, single point]
Cc1ccc(CN2C(=O)N/C(=C/c3ccc4c(c3)n(C)c(=O)n4C)C2=O)cc1 12.6 µM [inhibitor, partial curve]
CC(=O)c1c(C)oc2ccc(N(C(C)=O)S(=O)(=O)c3ccc(Cl)c([N+](=O)[O-])c3)cc12 2.51 µM [inhibitor, full curve]
C=CCN1CN(S(=O)(=O)c2cccs2)c2nc3ccccc3nc21 35.5 µM [inhibitor, single point]
O=C(NOC(=O)c1ccccc1F)c1ccc(OC(F)F)cc1 39.8 µM [inhibitor, single point]
CSc1ccccc1NC(=O)c1ccc(C)o1 39.8 µM [inhibitor, single point]
O=C(OCC#CCSc1nnc(-c2ccncc2)o1)c1sc2ccccc2c1Cl 14.1 µM [inhibitor, partial curve]
O=c1[nH]c(-c2ccccn2)nc2ccccc12 44.7 µM [inhibitor, single point]
COCCN(C(=O)c1csnn1)C(C(=O)NC(C)(C)C)c1cccc(OC)c1 (stereo not drawn) 28.2 µM [inhibitor, partial curve]
CC(C)CC(=O)N1CCN(Cc2ccc3c(c2)OCO3)CC1 39.8 µM [inhibitor, single point]
O=S(=O)(c1ccc2nc(-c3ccco3)c(-c3ccco3)nc2c1)N1CCOCC1 2.24 µM [inhibitor, partial curve]
Cc1ccc2nc(NC(=O)/C=C/c3ccc4c(c3)OCO4)sc2c1 39.8 µM [inhibitor, single point]
O=[N+]([O-])c1c(NCCO)cc(N2CCC3(CC2)OCCO3)c2nonc12 31.6 µM [inhibitor, single point]
O=C1c2ccccc2C(=O)N1OS(=O)(=O)c1ccccc1 28.2 µM [inhibitor, partial curve]
Cc1cc(C(=O)COC(=O)c2ccc(CO)cc2)c(C)n1CC1COc2ccccc2O1 (stereo not drawn) 39.8 µM [inhibitor, single point]
CCC(C)NC(=O)c1c(N)n(/N=C/c2cccs2)c2nc3ccccc3nc12 (stereo not drawn) 10 µM [inhibitor, partial curve]
Cc1noc(/C=C/N(C)C)c1S(=O)(=O)NC1CCCCC1 35.5 µM [inhibitor, single point]
COc1ccc(NC(=O)C/C(C)=N/NC(=O)C(=O)NC2CCCCC2)c(OC)c1 35.5 µM [inhibitor, single point]
Nc1ccc(-c2nc3c(Cl)c(N)ccc3[nH]2)cc1 31.6 µM [inhibitor, partial curve]
N=c1oc2ccc3ccccc3c2cc1C(N)=S 20 µM [inhibitor, partial curve]
CCOC(=O)c1ccc(NC(=O)c2ccccc2[N+](=O)[O-])cc1 39.8 µM [inhibitor, single point]

Potency, inactive:
CC(C)(C)c1ccc(C(=O)N2CCNCC2)cc1
CN(c1ccc(C(=O)NCCSC(C)(C)C)cc1)S(C)(=O)=O
CCCn1c(SCC(N)=O)nnc1C(C)C
CCOC(=O)N1CCN(C(=O)c2cccc(NS(=O)(=O)c3ccc(F)c(F)c3)c2)CC1
COCCn1nnnc1SCC(=O)NCc1ccc2c(c1)OCO2
Cc1ccc(CNC(=O)CSc2ncccn2)cc1
COc1ccc(C(=O)N2CCC3(CCN(Cc4ccncc4)CC3)CC2)cc1
Cc1cc(NC(=O)c2cc(C(C)(C)C)oc2C)no1
Cc1c(/C=N/NC(=O)c2cccnc2)c2ccccc2n1Cc1ccccc1
Nc1ccccc1SCC(=O)Nc1ccc(N2CCOCC2)cc1
O=C1c2ccccc2C2(c3ccccc3)NCCN12 (stereo not drawn)
CC(=O)Oc1ccc([N+](=O)[O-])cc1N1C(=O)c2ccccc2C1=O
COc1ccc(CCNC(=O)CS(=O)(=O)c2cn(CC(=O)N3CCOCC3)c3ccccc23)cc1OC
CC(=O)OCC(=O)c1c[nH]c2ccccc12
COC(=O)c1ccc(C(=O)OC)c(NC(=S)N2CCN(c3ccccn3)CC2)c1
O=C(C1CC2C=CC1C2)N1CCN(c2ccccc2)CC1 (stereo not drawn)
COCCCn1c(Cc2csc(Nc3cccc(Cl)c3)n2)nnc1SCC(=O)OC
COc1ccc(-n2c(=O)c3ccccc3n(Cc3cccc(C)c3)c2=O)cc1OC
CNCC(=O)N(CC(C)C)c1c(N)n(CC(C)C)c(=O)[nH]c1=O

Potency, active:
CNC(=S)N1N=C(c2ccc(Br)cc2)CC1c1ccc(OC)cc1 (stereo not drawn) 7.08 µM
O=C(CN1CC(=O)Nc2ccccc21)Nc1ccc(F)c(F)c1 6.31 µM
O=CN1CCc2scc[n+]2-c2ccccc21 14.1 µM
Cc1ccc(S(=O)(=O)CCN2CCN(c3ccccn3)CC2)cc1 12.6 µM
CCCCN1C(=O)c2ccc(C(=O)Nc3ccccc3N3CCOCC3)cc2C1=O 0.891 µM
CCN(CC)c1ccc(C(=O)NNC(=O)CCl)cc1 10 µM
O=C1COc2ccc(N3C(=O)C=CC3=O)cc2N1 6.31 µM
CCN(CC)CCNC(=O)c1c(C)n(-c2ccccc2)c2cc(Br)c(OC)cc12 0.631 µM
CCn1c(CSc2ncccn2)nnc1SCC(=O)N1CCc2ccccc21 20 µM
CC(=O)c1cccc(NC(=S)NC(=O)c2ccc(C)cc2Cl)c1 8.91 µM
CN(C)CCC(=O)c1cccc(Br)c1 0.0398 µM

activity, negative = inhibition, inactive:
CC(CCc1nc2ccccc2s1)(c1ccc(O)cc1)c1ccc(O)cc1 6.38% [at 13.5 µM]
